{"source": "PubChem BioAssay AID1476", "about": "(National Center for Advancing Translational Sciences (NCATS), 2009)", "note": "Out of some 200,000 compounds screened, about 4,500 (2.2%) were called active. This list was built around the results that the source calls inconclusive (neither active nor inactive); the mix of calls is not that of the screen. The call rests on the fitted dose curve; in most records, active means well fitted inhibition curve with a large enough effect; inconclusive means small, poorly fitted or top-dose-only effect, or effect the other way; inactive means flat fitted curve, though single readings scatter. A potency beside an inconclusive call is a rough fit, not a confirmed value. Potency means the concentration at half of the fitted maximal effect; tags describe the fitted curve by direction and shape.", "data": [{"biological_target": "Cruzipain (Trypanosoma cruzi) (UniProt P25779)", "sequence (P25779 whole entry, looked up)": "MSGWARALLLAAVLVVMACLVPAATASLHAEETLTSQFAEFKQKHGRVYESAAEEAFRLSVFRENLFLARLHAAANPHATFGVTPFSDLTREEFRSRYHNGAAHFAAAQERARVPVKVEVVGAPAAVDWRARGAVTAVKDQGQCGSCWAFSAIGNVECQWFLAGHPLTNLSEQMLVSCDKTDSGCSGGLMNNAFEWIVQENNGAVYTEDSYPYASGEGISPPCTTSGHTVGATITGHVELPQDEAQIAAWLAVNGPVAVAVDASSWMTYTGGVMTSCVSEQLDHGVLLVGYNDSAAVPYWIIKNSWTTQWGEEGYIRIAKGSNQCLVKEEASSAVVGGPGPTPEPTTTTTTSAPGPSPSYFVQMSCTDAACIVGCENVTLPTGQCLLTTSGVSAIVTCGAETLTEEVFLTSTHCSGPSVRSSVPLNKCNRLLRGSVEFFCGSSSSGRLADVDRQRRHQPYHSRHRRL", "test": "qHTS Assay for Promiscuous and Specific Inhibitors of Cruzain (without detergent); further: nearly all actives have a fitted effect of over 40% in size;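 on max response, negative = inhibition: plate controls were enzyme without inhibitor for no effect and buffer without enzyme for full effect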", "conditions": "purified cruzain, Z-FR-AMC fluorescence, no detergent", "outline": "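Purified cruzain at 1.5 nM, pre-incubated 15 min with compound at room temperature in 100 mM sodium acetate pH 5.5, 5 mM DTT, 0.00005% Triton X-100. Reaction started with 2 uM Z-FR-AMC; AMC fluorescence increase over 60 s gives rate.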", "values": [{"smiles": "C=CCN1C(=O)/C(=C2/Sc3ccccc3N2C)SC1=Nc1ccccc1C", "Potency": "inconclusive: 39.8 µM [inhibitor, single point]"}, {"smiles": "COCCCNC(=O)C1CCN(Cc2nc(-c3ccc(OC)c(OC)c3)oc2C)CC1", "max response, negative = inhibition": "inactive: -3.04%"}, {"smiles": "CC1(C)CC(C(CCN(Cc2ccccc2)C(=O)c2ccco2)c2ccc(F)cc2)CCO1", "note": "(centres undefined)", "Potency": "inconclusive: 31.6 µM [activator, single point]"}, {"smiles": "O=C(CSc1nnc(-c2cc3ccccc3cc2O)n1Cc1ccco1)c1ccc(F)cc1", "Potency": "inconclusive: 31.6 µM [inhibitor, single point]"}, {"smiles": "COc1ccc(-c2cc(C#N)nc(N3CCN(C)CC3)n2)cc1", "Potency": "active: 15.8 µM"}, {"smiles": "Cc1cc(NC(=O)CSc2nnc(COc3ccccc3)n2Cc2ccco2)no1", "Potency": "inconclusive: 39.8 µM [inhibitor, single point]"}, {"smiles": "COCCNC(=O)c1ccc(CSc2nc3ccncc3n2Cc2ccccc2)cc1", "max response, negative = inhibition": "inactive: 8.83%"}, {"smiles": "COc1cc(/C=C/C(=O)NC(C)CCc2ccccc2)cc(OC)c1OC", "note": "(centres undefined)", "Potency": "inconclusive: 31.6 µM [activator, single point]"}, {"smiles": "COC(=O)c1ccc(OCC2c3cc(OC)c(OC)cc3CCN2C(=O)C(C)C)cc1", "note": "(centres undefined)", "Potency": "inconclusive: 39.8 µM [activator, single point]"}, {"smiles": "COC(=O)c1ccccc1CCC(C)=O", "max response, negative = inhibition": "inactive: 3.78%"}, {"smiles": "Cc1ccc(SCc2cc(=O)[nH]c(/N=C(\\N)Nc3ccccc3Sc3ccccc3)n2)cc1", "Potency": "active: 12.6 µM"}, {"smiles": "Cc1cc2oc(=O)cc(-c3ccccc3)c2c(C)c1-c1ccc(OC(F)(F)F)cc1", "Potency": "inconclusive: 44.7 µM [inhibitor, single point]"}, {"smiles": "CCc1cccc(N2C(=O)N(CC(=O)NCc3cccc(OC)c3OC)c3ccccc3S2(=O)=O)c1", "Potency": "inconclusive: 25.1 µM [activator, single point]"}, {"smiles": "COC(=O)c1ccccc1NC(=S)N(Cc1ccc2c(c1)OCO2)Cc1cc2cc(C)ccc2[nH]c1=O", "Potency": "inconclusive: 31.6 µM [inhibitor, single point]"}, {"smiles": "Cc1ccc(C)c(CN2C(=O)c3ccccc3S(=O)(=O)c3ccc(C(=O)N4CCN(c5ccccn5)CC4)cc32)c1", "max response, negative = inhibition": "inactive: -0.587%"}, {"smiles": "COc1ccc(C(=O)NCCc2sc(-c3ccc(Cl)cc3)nc2C)c(OC)c1", "Potency": "inconclusive: 39.8 µM [activator, single point]"}, {"smiles": "C=Cc1ccc(CN2C(=O)N(c3ccc(CC)cc3)S(=O)(=O)c3ccccc32)cc1", "max response, negative = inhibition": "inactive: -29%"}, {"smiles": "COc1ccc(C)cc1NC(=O)CSc1nc(=O)n(Cc2ccncc2)c2c1CCC2", "Potency": "inconclusive: 39.8 µM [activator, single point]"}, {"smiles": "CC(C)C[C@@H](CC(=O)N[C@@H](CCCN)CC(=O)N[C@@H]1CCCC[C@H]1C(=O)N[C@H](CC(=O)N[C@@H](CCC(=O)O)CC(=O)O)Cc1ccccc1)NC(=O)[C@@H]1CCCC[C@H]1N", "Potency": "inconclusive: 20 µM [activator, partial curve]"}, {"smiles": "COc1ccc(C)cc1NC(=O)NCc1ccc2c(c1)CCN2C(=O)c1ccccc1", "Potency": "active: 20 µM"}, {"smiles": "C=CCOc1ccc2cccc(/C=N/NC(=O)c3cc4cc([N+](=O)[O-])ccc4s3)c2c1", "Potency": "active: 6.31 µM"}, {"smiles": "Cc1ccc(Cl)cc1N1CCN(C(=O)c2cc(S(=O)(=O)N3CCCC3)cn2C)CC1", "max response, negative = inhibition": "inactive: 3.76%"}, {"smiles": "Cn1cc(-c2nc3cncnc3n(Cc3ccc(F)cc3)c2=O)c2ccccc21", "max response, negative = inhibition": "inactive: 3.77%"}, {"smiles": "Cc1ccc(-c2nc3nc4ccccc4nc3n2Cc2ccco2)cc1", "Potency": "inconclusive: 31.6 µM [inhibitor, single point]"}, {"smiles": "Nc1ccc2oc(-c3ccc4nc[nH]c4c3)nc2c1", "Potency": "inconclusive: 15.8 µM [inhibitor, single point]"}, {"smiles": "c1ccc(-c2cn3nc(-c4ccccc4)c(-c4ccccc4)nc3n2)cc1", "Potency": "inconclusive: 39.8 µM [inhibitor, single point]"}, {"smiles": "COC(=O)N1[C@H]2CC[C@@]3(C)C=C(C)O[C@]1(C)C3c1ccccc12", "max response, negative = inhibition": "inactive: 3.25%"}, {"smiles": "CC(C1CC1)N(C(=O)c1ccccc1O)c1ccccc1", "note": "(centres undefined)", "max response, negative = inhibition": "inactive: -1.17%"}, {"smiles": "Cc1ccc(-n2ncc3c(=O)n(CC(=O)NCc4ccco4)cnc32)cc1", "Potency": "inconclusive: 0.0316 µM [inhibitor, partial curve, poor fit]"}, {"smiles": "COc1cccc2cc(C(N)=O)/c(=N/NC(=O)COc3ccc(Cl)cc3)oc12", "Potency": "inconclusive: 39.8 µM [inhibitor, single point]"}, {"smiles": "CCOC(=O)C1=C(C)NC(C)=C(C(=O)OCC)C1c1cc2ccc(C)cc2[nH]c1=O", "Potency": "inconclusive: 39.8 µM [activator, single point]"}, {"smiles": "COc1cccc(CC(NC(C)=O)C(=O)NC2CCN(S(=O)(=O)c3cccc4ccccc34)CC2)c1", "note": "(centres undefined)", "Potency": "inconclusive: 31.6 µM [activator, partial curve]"}, {"smiles": "Cc1ccc(CSc2nc3c(c(=O)[nH]c(=O)n3C)n2CCC(C)C)cc1", "Potency": "inconclusive: 39.8 µM [inhibitor, single point]"}, {"smiles": "CCCn1cnc2c(c1=O)c1nc3ccccc3nc1n2CCc1ccccc1", "Potency": "inconclusive: 31.6 µM [activator, single point]"}, {"smiles": "COc1ccc(CNc2ncncc2-c2ccccc2C(F)(F)F)c(OC)c1", "max response, negative = inhibition": "inactive: 0.861%"}, {"smiles": "COc1cccc(C2CC(c3cccs3)=NN2C(=O)CSc2nc3ccccc3s2)c1OC", "note": "(centres undefined)", "Potency": "active: 12.6 µM"}, {"smiles": "CCCNC(=O)N1[C@H](c2ccc(C)s2)[C@@H](C)C(=O)[C@@H](C)[C@@H]1c1ccc(C)s1", "max response, negative = inhibition": "inactive: 6.38%"}, {"smiles": "COC(=O)c1cnc(NCc2ccc(F)cc2)c2ccccc12", "max response, negative = inhibition": "inactive: 0.126%"}, {"smiles": "CC(C)CC(COCc1cccc(Cl)c1)N1CCN(C(=O)c2ccc(C(F)(F)F)cc2)CCC1=O", "note": "(centres undefined)", "Potency": "inconclusive: 25.1 µM [activator, single point]"}, {"smiles": "COc1ccc(NC(=O)CSc2nc(-c3ccco3)cc(C(F)(F)F)n2)cc1", "max response, negative = inhibition": "inactive: -6.35%"}, {"smiles": "COc1ccc(NC(=O)Cn2c(=O)n(Cc3ccc(C(=O)NCc4ccccc4Cl)cc3)c(=O)c3ccccc32)cc1OC", "max response, negative = inhibition": "inactive: -8.15%"}, {"smiles": "COc1ccc2c(c1)CC/C(=C\\C=C\\c1ccccc1OC)C2=O", "Potency": "inconclusive: 15.8 µM [inhibitor, partial curve, poor fit]"}, {"smiles": "CCN(c1ccccc1)S(=O)(=O)c1ccc(C(=O)Nc2nnc(COC)o2)cc1", "Potency": "inconclusive: 39.8 µM [activator, single point]"}, {"smiles": "COC(=O)c1ccccc1Sc1c(/C=N/OCc2ccc(Cl)cc2)c(C(F)(F)F)nn1C", "Potency": "inconclusive: 39.8 µM [inhibitor, single point]"}, {"smiles": "O=C(O)CCC(=O)N1N=C(c2cccs2)CC1c1cn(-c2ccccc2)nc1-c1ccccc1", "note": "(centres undefined)", "max response, negative = inhibition": "inconclusive: 57.7% [activator]"}, {"smiles": "CCOC(=O)Cn1nc(/C=C/c2ccc(C(C)C)cc2)ccc1=O", "Potency": "inconclusive: 39.8 µM [activator, single point]"}, {"smiles": "O=C(NCCc1ccccc1)/C(=C\\c1ccc([N+](=O)[O-])cc1)NC(=O)c1ccc(Br)cc1", "Potency": "active: 6.31 µM"}, {"smiles": "Cc1nnc2c(Nc3cccc(O)c3)nc3ccccc3n12", "max response, negative = inhibition": "inactive: 0.346%"}, {"smiles": "COc1ccc(/C=N/Nc2ncnc3scc(-c4ccccc4)c23)cc1OC", "Potency": "inconclusive: 39.8 µM [activator, single point]"}, {"smiles": "COc1ccc(C)cc1NS(=O)(=O)c1ccc2c(c1)n(C)c(=O)n2C", "Potency": "inconclusive: 39.8 µM [activator, single point]"}, {"smiles": "Cc1ccc(S(=O)(=O)NCC(=O)N(c2ccccc2)C(C(=O)NCc2ccccc2)c2ccco2)cc1", "note": "(centres undefined)", "max response, negative = inhibition": "inactive: -2.88%"}, {"smiles": "COc1cccc(N=Cc2ccc(O)cc2O)c1", "Potency": "inconclusive: 25.1 µM [inhibitor, single point]"}, {"smiles": "CC(C)Cc1nc2oc3c(=O)[nH]cnc3c2c2c1CCCC2", "Potency": "inconclusive: 39.8 µM [inhibitor, single point]"}, {"smiles": "Cc1ccc(NC(=O)Cn2nnc3sc(-c4ccccc4)cc3c2=O)cc1Cl", "Potency": "inconclusive: 25.1 µM [inhibitor, single point]"}, {"smiles": "Cc1ccc2c(c1)N(C(=O)NCc1ccccc1)CCO2", "max response, negative = inhibition": "inactive: -0.291%"}, {"smiles": "COc1ccc(CCn2c(O)c(C=NCc3ccc4c(c3)OCO4)c(=O)[nH]c2=O)cc1OC", "Potency": "inconclusive: 31.6 µM [activator, single point]"}, {"smiles": "CC1=C(C(=O)OCC2CCCO2)C(c2ccc(C)o2)C2=C(CC(c3ccc(F)cc3)CC2=O)N1", "note": "(centres undefined)", "Potency": "inconclusive: 39.8 µM [activator, single point]"}, {"smiles": "O=C(CC1SC(=Nc2ccccc2)N(Cc2ccccn2)C1=O)Nc1ccc(Br)cc1", "note": "(centres undefined)", "Potency": "inconclusive: 25.1 µM [inhibitor, single point]"}, {"smiles": "COc1cccc(C(=O)Nc2ccc3c(c2)C(=O)c2ccccc2C3=O)c1", "Potency": "inconclusive: 39.8 µM [inhibitor, single point]"}, {"smiles": "COC(=O)c1c(NC(=O)c2ccc(Br)s2)sc2c1CCC2", "Potency": "active: 10 µM"}, {"smiles": "COc1cccc(NC(=O)Cn2c(=O)n(-c3ccc(Cl)cc3)c(=O)c3sc4ccccc4c32)c1", "Potency": "inconclusive: 39.8 µM [inhibitor, single point]"}, {"smiles": "COc1ccc(CNc2ccnc(-c3cccc(NS(C)(=O)=O)c3)n2)c(OC)c1", "max response, negative = inhibition": "inactive: 7.04%"}, {"smiles": "Cc1noc(/C=C/c2ccccc2F)c1S(=O)(=O)N1CCC(C(=O)N(C)Cc2ccco2)CC1", "Potency": "inconclusive: 12.6 µM [activator, partial curve]"}, {"smiles": "Cc1ccc2cc3cc(C(=O)N(CC(=O)NC4CCCC4)c4cccc(C)c4C)sc3nc2c1", "Potency": "inconclusive: 25.1 µM [inhibitor, single point]"}]}]}
